Laboratory results reported in the RNAGym collection of RNA variant scans (doi:10.7554/elife.90254).
Read counts are not given, so values of variants with three or more changes are uncertain.

B1: LINE1-mini (parent)
chain: GGCAGAGCUCAACACAGCGUGGCAAAGUGGCUGUGGCUAGACUGCC

Variants of: B1
Experiment: self-cleavage, relative activity (ratio to wild type); higher = more cleavage; in vitro, sequencing; the parent is a self-cleaving ribozyme

Question: Which self-cleavage does the source give for GGCAGAGCUCAAGACAGGGUGUCAAAGUGGCUGUGGCCAAACUGCC [C13G C18G G22U U38C G40A] here?
Answer: 0.12

Question: With GGCAGAGCUCAAGACAGCUUGGCAAAGUGGCUGUUGCUAGGCUGCC [C13G G19U G35U A41G] as the variant, how does the self-cleavage read?
Answer: 0.02

Question: For GGCAGAGCUCAAUACAGCGUGGCUAAGUAUGUGUGGCUAGACUGCC [C13U A24U G29A G30U C31G], which self-cleavage is on record?
Answer: 0.02

Question: With GGCAGAGCUCAAGACAGCGAGGCAAAGUGACUGUGGCUAGCAUGCC [C13G U20A G30A A41C C42A] as the variant, how does the self-cleavage read?
Answer: 0.03

Question: Which self-cleavage does the source give for GGCAGAGCUCAAUACAGCGUGGCAAAGUGGCUGUGGCUAGGCUGAC [C13U A41G C45A] here?
Answer: 0.02

Question: Which self-cleavage does the source give for GGCAGAGCUCAAGACAGCGUUGCAAAGUGGCUGCUGCUAGACUGCC [C13G G21U U34C G35U] here?
Answer: 0.08

Question: With GGCAGAGCUCAAGAUAGUGGGGCAAAGUGGCUGUGGUUAGUCAGCC [C13G C15U C18U U20G C37U A41U U43A] as the variant, how does the self-cleavage read?
Answer: 0.01

Question: With GGCAGAGCUCAAGACAGCGUGGCAAAUUGGCUGUGGCUAGACUGUC [C13G G27U C45U] as the variant, how does the self-cleavage read?
Answer: 0.24

Question: With GGCAGAGCUCAAUAAAGCGUGGCCAAGUGGCUGUGGCUAGACUGCC [C13U C15A A24C] as the variant, how does the self-cleavage read?
Answer: 0.03

Question: With GGCAGAGCUCAAGACAGCGUGGCAAAGUGGCUGUGACUCGACUGCC [C13G G36A A39C] as the variant, how does the self-cleavage read?
Answer: 0.03

Question: Which self-cleavage does the source give for GGCAGAGCUCAAGACAGAGUGGCACAUUGGCAUUGGCUAGACUGCC [C13G C18A A25C G27U U32A G33U] here?
Answer: 0.01

Question: With GGCAGAGCUCAAGACAGCGUCGCAAAGUGGCUGUGUCUAGACUUCC [C13G G21C G36U G44U] as the variant, how does the self-cleavage read?
Answer: 0.03

Question: With GGCAGAGCUCAAGACAGCGUGGCAAAGUAGCUGUGGCUACACUGCC [C13G G29A G40C] as the variant, how does the self-cleavage read?
Answer: 0.17

Question: With GGCAGAGCUCAAGACCGGGUGGCAAAGUGGCUUUGGCUAGACUGCC [C13G A16C C18G G33U] as the variant, how does the self-cleavage read?
Answer: 0.01

Question: Which self-cleavage does the source give for GGCAGAGCUCAAGAUAGCGUGGCAAAUUGGCUGUGGCUAGACUGCC [C13G C15U G27U] here?
Answer: 0.03

Question: For GGCAGAGCUCAAGACACCCUGGCAAAGUGGCUGCGGUUAGCCUGCG [C13G G17C G19C U34C C37U A41C C46G], which self-cleavage is on record?
Answer: 0.04

Question: For GGCAGAGCUCAAGACAGCGUGGCAAAGUGUCUGUAGCUAGACUGCC [C13G G30U G35A], which self-cleavage is on record?
Answer: 0.06

Question: Which self-cleavage does the source give for GGCAGAGCUCAAGACAACGUGGCAAAGUGACUGUGGCUAGAAUGCC [C13G G17A G30A C42A] here?
Answer: 0.01

Question: Which self-cleavage does the source give for GGCAGAGCUCAAUACAGCGUGGCAUAGUGGCUGUGGCCCGAUUGCC [C13U A25U U38C A39C C42U] here?
Answer: 0.04

Question: With GGCAGAGCUCAAGACAUCGUGGCAAAGUGGCUGUGGCUAGCCUGCA [C13G G17U A41C C46A] as the variant, how does the self-cleavage read?
Answer: 0.02

Question: For GGCAGAGCUCAAUACAGCGUGGCCAAGUGGCUGUGGCUAGACCGCC [C13U A24C U43C], which self-cleavage is on record?
Answer: 0.03

Question: With GGCAGAGCUCAAUCCUGCGUAGGAAAGUGGCUGUGGCUAGACUGCC [C13U A14C A16U G21A C23G] as the variant, how does the self-cleavage read?
Answer: 0.31

Question: For GGCAGAGCUCAAGACAGCGUGGCUAAGUGGCUGUGGCUAGACUACC [C13G A24U G44A], which self-cleavage is on record?
Answer: 0.04

Question: With GGCAGAGCUCAAUACAGCGUGGCAAAGUGGCUGUGGCUGGACAGCC [C13U A39G U43A] as the variant, how does the self-cleavage read?
Answer: 0.14

Question: Which self-cleavage does the source give for GGCAGAGCUCAAGUCAGCUUGGCAAAGUGGCUGUGCCUAGACUGCC [C13G A14U G19U G36C] here?
Answer: 0.02

Question: For GGCAGAGCUCAAUACCGCGUGGCAAAGUGGCAGUGGCUAGACUGCC [C13U A16C U32A], which self-cleavage is on record?
Answer: 0.03

Question: For GGCAGAGCUCAAGACAGCGUAGCAGAGUGGCUGUGUCUAGACUGCC [C13G G21A A25G G36U], which self-cleavage is on record?
Answer: 0.1

Question: With GGCAGAGCUCAAGACAACGUGGCUAAGUGGCUCUGGCUAGACUGCC [C13G G17A A24U G33C] as the variant, how does the self-cleavage read?
Answer: 0.04

Question: For GGCAGAGCUCAAGACAGCGUGGCCAAGUGGCUGCGGCUAGACUGCC [C13G A24C U34C], which self-cleavage is on record?
Answer: 0.07

Question: With GGCAGAGCUCAAGACAGCGUGGCCAAGUGGCUGUGCCUAGACUGCC [C13G A24C G36C] as the variant, how does the self-cleavage read?
Answer: 0.08

Question: Which self-cleavage does the source give for GGCAGAGCUCAAUACGGCCUGGCAAAGUGGCUGUGGCUAGACUGCC [C13U A16G G19C] here?
Answer: 0.03

Question: Which self-cleavage does the source give for GGCAGAGCUCAAGACAGCGUGGCAAGGUGGCUGUGUCUAGGCUGCC [C13G A26G G36U A41G] here?
Answer: 0.07

Question: For GGCAGAGCUCAAGAUAGCGUGUCAAAGUGGCUGUGCCUAGACUGCC [C13G C15U G22U G36C], which self-cleavage is on record?
Answer: 0.02

Question: For GGCAGAGCUCAAGACAGAGUGGCAAAGUGGCUGUGGCUAGACUAUC [C13G C18A G44A C45U], which self-cleavage is on record?
Answer: 0.01

Question: With GGCAGAGCUCAAUACAGCGUGGCAACGUGGCUGUGGCUAGACUGCA [C13U A26C C46A] as the variant, how does the self-cleavage read?
Answer: 0.22

Question: For GGCAGAGCUCAAUACAGCGUGGCAACGUGGCUGUGGCUAGACUGCG [C13U A26C C46G], which self-cleavage is on record?
Answer: 0.11

Question: For GGCAGAGCUCAAGACAACGUGGCAAAGUCGCGGUGGCUUGACCGCG [C13G G17A G29C U32G A39U U43C C46G], which self-cleavage is on record?
Answer: 0.03

Question: Which self-cleavage does the source give for GGCAGAGCUCAAGACACCAUUUCAAAGUGGCUGUGGCUAGACUGCG [C13G G17C G19A G21U G22U C46G] here?
Answer: 0.04

Question: For GGCAGAGCUCAAUACAGCGUGGCACAGUGGCUGUAGCUAGCCUGCC [C13U A25C G35A A41C], which self-cleavage is on record?
Answer: 0.02

Question: For GGCAGAGCUCAAGACAGCGUGGUAAAGUGGCUGUGGCUCGACUGCC [C13G C23U A39C], which self-cleavage is on record?
Answer: 0.03

Question: For GGCAGAGCUCAAGACAGCGUGGUAAAGUGGCUGUGGCUAGUCUGCC [C13G C23U A41U], which self-cleavage is on record?
Answer: 0.09

Question: Which self-cleavage does the source give for GGCAGAGCUCAAGACAGCGUGGCCAAGUGGCCUUGGCUAGACUUCC [C13G A24C U32C G33U G44U] here?
Answer: 0.07

Question: With GGCAGAGCUCAAGACAGCGUGGUAAAGUUGCUGUGGCUAGACUGCC [C13G C23U G29U] as the variant, how does the self-cleavage read?
Answer: 0.28

Question: For GGCAGAGCUCAAGACAGCGUGGCAAAGUCGCUCUUGUUAGACUGCC [C13G G29C G33C G35U C37U], which self-cleavage is on record?
Answer: 0.06

Question: With GGCAGAGCUCAAUACGGUGUGGCAAAGUGGCUGUGGCUAGACCGCC [C13U A16G C18U U43C] as the variant, how does the self-cleavage read?
Answer: 0.04

Question: Which self-cleavage does the source give for GGCAGAGCUCAAGACAGUGUGGCAAAGUGGCUGUGGCUAAACUGAC [C13G C18U G40A C45A] here?
Answer: 0.02

Question: Which self-cleavage does the source give for GGCAGAGCUCAAUGCAGCGUGGCAAAGUCGCUGUGGCUAGACUGCC [C13U A14G G29C] here?
Answer: 0.12

Question: With GGCAGAGCUCAAGACAGCGUGGCAACGUUGCUGUGACUAGACUGCC [C13G A26C G29U G36A] as the variant, how does the self-cleavage read?
Answer: 0.05

Question: For GGCAGAGCUCAAGACAGCGUGGCAGAGUGGCUGUAGCUAAACUGCC [C13G A25G G35A G40A], which self-cleavage is on record?
Answer: 0.03

Question: For GGCAGAGCUCAAGACAGGCUGGCAAAGUGGCUGUGACUAGACUGCC [C13G C18G G19C G36A], which self-cleavage is on record?
Answer: 0.05

Question: Which self-cleavage does the source give for GGCAGAGCUCAAGACAGCGAGGCAAAGUGGCUGUGUCUAGAGUGCC [C13G U20A G36U C42G] here?
Answer: 0.02

Question: With GGCAGAGCUCAAGACAGCGUGGCAAAGUUUCUGUGGCUAGACUGCC [C13G G29U G30U] as the variant, how does the self-cleavage read?
Answer: 0.1

Question: With GGCAGAGCUCAAGACAGCGUGGCAAAGUGUCUGAGGCUAGACUGCC [C13G G30U U34A] as the variant, how does the self-cleavage read?
Answer: 0.05

Question: Which self-cleavage does the source give for GGCAGAGCUCAAGACAGUAUCGCAAGGUGGCUGUGGCUAGACUGCC [C13G C18U G19A G21C A26G] here?
Answer: 0.06

Question: For GGCAGAGCUCAAUACAGCGUGGCAAGGUGGCUGUGGCUAGACUCCC [C13U A26G G44C], which self-cleavage is on record?
Answer: 0.11

Question: With GGCAGAGCUCAAGAAAGCGUGGCAAAGUGGCUGUGGUUAUACUGCC [C13G C15A C37U G40U] as the variant, how does the self-cleavage read?
Answer: 0
